Measurements: paper PMC9911399, “Two distinct binding modes provide the RNA-binding protein RbFox with extraordinary sequence specificity”
Changes are numbered by the printed parent chain; changes in the protein carry UniProt numbers. This is one part of the list.

T1: RBFOX1 RRM RbFoxmut (Fox-RRM*) (Homo sapiens, UniProt Q9NWB1 109-208, R118D;E147R;N151S;E152T)
T1 sequence: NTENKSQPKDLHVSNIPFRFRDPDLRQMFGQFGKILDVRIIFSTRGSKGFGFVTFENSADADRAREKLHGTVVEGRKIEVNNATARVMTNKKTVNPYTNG

B1: UAGUGAC (DNA:RNA)
RNA: GGGAGACCGGAAUUCAGAUUGUCCUAGUGACUUAAAUCCCGUCGUAGCCACCA
DNA 1: CAATCTGAATTCCGGTCTCCC
DNA 2: TGGTGGCTACGACGGGATT
B2: CAACAGU (DNA:RNA)
RNA: B1 RNA with U25C, G27A, U28C, G29A, A30G, C31U
DNA 1: CAATCTGAATTCCGGTCTCCC
DNA 2: TGGTGGCTACGACGGGATT
B3: AUCAUAC (DNA:RNA)
RNA: B1 RNA with U25A, A26U, G27C, U28A, G29U
DNA 1: CAATCTGAATTCCGGTCTCCC
DNA 2: TGGTGGCTACGACGGGATT
B4: UUUAUAC (DNA:RNA)
RNA: B1 RNA with A26U, G27U, U28A, G29U
DNA 1: CAATCTGAATTCCGGTCTCCC
DNA 2: TGGTGGCTACGACGGGATT
B5: UCGGCUA (DNA:RNA)
RNA: B1 RNA with A26C, U28G, G29C, A30U, C31A
DNA 1: CAATCTGAATTCCGGTCTCCC
DNA 2: TGGTGGCTACGACGGGATT
B6: CGGUGGG (DNA:RNA)
RNA: B1 RNA with U25C, A26G, A30G, C31G
DNA 1: CAATCTGAATTCCGGTCTCCC
DNA 2: TGGTGGCTACGACGGGATT
B7: UAGUGGA (DNA:RNA)
RNA: B1 RNA with A30G, C31A
DNA 1: CAATCTGAATTCCGGTCTCCC
DNA 2: TGGTGGCTACGACGGGATT
B8: UUCGGCC (DNA:RNA)
RNA: B1 RNA with A26U, G27C, U28G, A30C
DNA 1: CAATCTGAATTCCGGTCTCCC
DNA 2: TGGTGGCTACGACGGGATT
B9: AGUGGCU (DNA:RNA)
RNA: B1 RNA with U25A, A26G, G27U, U28G, A30C, C31U
DNA 1: CAATCTGAATTCCGGTCTCCC
DNA 2: TGGTGGCTACGACGGGATT
B10: AAGUUAU (DNA:RNA)
RNA: B1 RNA with U25A, G29U, C31U
DNA 1: CAATCTGAATTCCGGTCTCCC
DNA 2: TGGTGGCTACGACGGGATT
B11: AAUCUUG (DNA:RNA)
RNA: B1 RNA with U25A, G27U, U28C, G29U, A30U, C31G
DNA 1: CAATCTGAATTCCGGTCTCCC
DNA 2: TGGTGGCTACGACGGGATT
B12: GCUGCAU (DNA:RNA)
RNA: B1 RNA with U25G, A26C, G27U, U28G, G29C, C31U
DNA 1: CAATCTGAATTCCGGTCTCCC
DNA 2: TGGTGGCTACGACGGGATT
B13: AAGCGCA (DNA:RNA)
RNA: B1 RNA with U25A, U28C, A30C, C31A
DNA 1: CAATCTGAATTCCGGTCTCCC
DNA 2: TGGTGGCTACGACGGGATT
B14: UCGAUCC (DNA:RNA)
RNA: B1 RNA with A26C, U28A, G29U, A30C
DNA 1: CAATCTGAATTCCGGTCTCCC
DNA 2: TGGTGGCTACGACGGGATT
B15: CAGGAAA (DNA:RNA)
RNA: B1 RNA with U25C, U28G, G29A, C31A
DNA 1: CAATCTGAATTCCGGTCTCCC
DNA 2: TGGTGGCTACGACGGGATT
B16: AUCCCCU (DNA:RNA)
RNA: GGGAGACCGGAAUUCAGAUUGUCCAUCCCCUUUAAAUCCCGUCGUAGCCACCA
DNA 1: CAATCTGAATTCCGGTCTCCC
DNA 2: TGGTGGCTACGACGGGATT
B17: GUGUCAU (DNA:RNA)
RNA: B16 RNA with A25G, C27G, C28U, C30A
DNA 1: CAATCTGAATTCCGGTCTCCC
DNA 2: TGGTGGCTACGACGGGATT
B18: UUAAUCC (DNA:RNA)
RNA: B16 RNA with A25U, C27A, C28A, C29U, U31C
DNA 1: CAATCTGAATTCCGGTCTCCC
DNA 2: TGGTGGCTACGACGGGATT
B19: AAAUUAC (DNA:RNA)
RNA: B1 RNA with U25A, G27A, G29U
DNA 1: CAATCTGAATTCCGGTCTCCC
DNA 2: TGGTGGCTACGACGGGATT
B20: GACAUCC (DNA:RNA)
RNA: B16 RNA with A25G, U26A, C28A, C29U, U31C
DNA 1: CAATCTGAATTCCGGTCTCCC
DNA 2: TGGTGGCTACGACGGGATT
B21: CCGUUUC (DNA:RNA)
RNA: B1 RNA with U25C, A26C, G29U, A30U
DNA 1: CAATCTGAATTCCGGTCTCCC
DNA 2: TGGTGGCTACGACGGGATT
B22: GAAUCGU (DNA:RNA)
RNA: B16 RNA with A25G, U26A, C27A, C28U, C30G
DNA 1: CAATCTGAATTCCGGTCTCCC
DNA 2: TGGTGGCTACGACGGGATT
B23: UGAUCCA (DNA:RNA)
RNA: B16 RNA with A25U, U26G, C27A, C28U, U31A
DNA 1: CAATCTGAATTCCGGTCTCCC
DNA 2: TGGTGGCTACGACGGGATT
B24: CCCAUCC (DNA:RNA)
RNA: B16 RNA with A25C, U26C, C28A, C29U, U31C
DNA 1: CAATCTGAATTCCGGTCTCCC
DNA 2: TGGTGGCTACGACGGGATT
B25: CAUAUAU (DNA:RNA)
RNA: B1 RNA with U25C, G27U, U28A, G29U, C31U
DNA 1: CAATCTGAATTCCGGTCTCCC
DNA 2: TGGTGGCTACGACGGGATT
B26: GGUAACA (DNA:RNA)
RNA: B16 RNA with A25G, U26G, C27U, C28A, C29A, U31A
DNA 1: CAATCTGAATTCCGGTCTCCC
DNA 2: TGGTGGCTACGACGGGATT
B27: CCCUUUC (DNA:RNA)
RNA: B1 RNA with U25C, A26C, G27C, G29U, A30U
DNA 1: CAATCTGAATTCCGGTCTCCC
DNA 2: TGGTGGCTACGACGGGATT
B28: ACUGAAG (DNA:RNA)
RNA: B16 RNA with U26C, C27U, C28G, C29A, C30A, U31G
DNA 1: CAATCTGAATTCCGGTCTCCC
DNA 2: TGGTGGCTACGACGGGATT
B29: AUUAGGU (DNA:RNA)
RNA: B16 RNA with C27U, C28A, C29G, C30G
DNA 1: CAATCTGAATTCCGGTCTCCC
DNA 2: TGGTGGCTACGACGGGATT
B30: UUAGCUG (DNA:RNA)
RNA: B16 RNA with A25U, C27A, C28G, C30U, U31G
DNA 1: CAATCTGAATTCCGGTCTCCC
DNA 2: TGGTGGCTACGACGGGATT
B31: CGGCGCU (DNA:RNA)
RNA: B16 RNA with A25C, U26G, C27G, C29G
DNA 1: CAATCTGAATTCCGGTCTCCC
DNA 2: TGGTGGCTACGACGGGATT

biological target: T1, RBFOX1 RRM RbFoxmut (Fox-RRM*); experiment: EMSA; HiTS-Eq, 1 nM pool, 10 min; buffer printed only for the single-RNA assays: 10 mM Tris pH 7.5, 150 mM NaCl, 3.4 mM EDTA, 0.001% NP-40, 30 C; conditions: tags: His6 N-terminal (pET28a); label: 5' 32P
How it was run: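 Purified wild-type or mutant RbFox RRM at increasing concentrations was equilibrated with 1 nM of 5′-radiolabelled RNA carrying 7 randomized nucleotides for 10 min in 50 µL. Unbound RNA was separated by 8% native PAGE and sequenced. Relative association constants came from read-count changes of each RNA species compared with the control reaction, normalised to the cognate motif.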

Binder | binding signal
B1 | 0.067 KA relative to UGCAUGU
B2 | 0.0564 KA relative to UGCAUGU
B3 | 0.108 KA relative to UGCAUGU
B4 | 0.118 KA relative to UGCAUGU
B5 | 0.106 KA relative to UGCAUGU
B6 | 0.0723 KA relative to UGCAUGU
B7 | 0.086 KA relative to UGCAUGU
B8 | 0.156 KA relative to UGCAUGU
B9 | 0.144 KA relative to UGCAUGU
B10 | 0.118 KA relative to UGCAUGU
B11 | 0.0858 KA relative to UGCAUGU
B12 | 0.185 KA relative to UGCAUGU
B13 | 0.125 KA relative to UGCAUGU
B14 | 0.0544 KA relative to UGCAUGU
B15 | 0.0873 KA relative to UGCAUGU
B16 | 0.0663 KA relative to UGCAUGU

Binder | binding signal
B17 | 0.103 KA relative to UGCAUGU
B18 | 0.0578 KA relative to UGCAUGU
B19 | 0.107 KA relative to UGCAUGU
B20 | 0.0501 KA relative to UGCAUGU
B21 | 0.118 KA relative to UGCAUGU
B22 | 0.576 KA relative to UGCAUGU
B23 | 0.0765 KA relative to UGCAUGU
B24 | 0.0681 KA relative to UGCAUGU
B25 | 0.114 KA relative to UGCAUGU
B26 | 0.0743 KA relative to UGCAUGU
B27 | 0.0564 KA relative to UGCAUGU
B28 | 0.099 KA relative to UGCAUGU
B29 | 0.0926 KA relative to UGCAUGU
B30 | 0.12 KA relative to UGCAUGU
B31 | 0.0775 KA relative to UGCAUGU
